Measured values: the supplement of paper PMC3334620
Over roughly 33,000 sequences, “E-score (-0.5 to 0.5)” has its median near -0.017; the highest 2% begin near 0.3. The list shows a part of the results.

Target: T1, Sut1 (UniProt P53032)
T1 sequence: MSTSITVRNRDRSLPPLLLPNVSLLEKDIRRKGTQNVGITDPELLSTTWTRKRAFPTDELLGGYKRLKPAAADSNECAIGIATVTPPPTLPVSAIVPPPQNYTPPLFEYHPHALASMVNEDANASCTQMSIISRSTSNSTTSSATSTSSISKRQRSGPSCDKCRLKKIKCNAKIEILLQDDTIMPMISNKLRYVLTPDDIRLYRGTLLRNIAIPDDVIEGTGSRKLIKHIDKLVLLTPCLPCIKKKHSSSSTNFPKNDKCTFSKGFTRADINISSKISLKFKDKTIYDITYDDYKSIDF
Test: PBM E-score (8-mer binding enrichment) (E-score (-0.5 to 0.5)); higher = stronger / more preferred TF binding; most listed sequences are background and not binding sites
Details: protein concentration: 200 nM; construct: GST-full length
Method in brief: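 GST-tagged yeast TFs (full-length or DNA-binding domain) were made by PURExpress in vitro transcription/translation and applied at about 100-200 nM to universal all-10-mer Agilent arrays. The arrays were made double-stranded by primer extension, on fresh or once-stripped slides. Bound protein was detected with fluorescent anti-GST, and scans were normalised with masliner. Each ungapped eight-base word, pooled with its reverse complement, received an E-score (modified Wilcoxon-Mann-Whitney statistic) from the Universal PBM Analysis Suite.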

| Sequence | PBM E-score |
| --- | --- |
| CTGTGCTA | -0.0815 |
| CTATCGCA | -0.0989 |
| GCCTTGTA | -0.0253 |
| CGTAGGTA | -0.0916 |
| CCCAATCA | -0.00324 |
| ATGTGACA | 0.127 |
| CAAGTGCG | -0.00833 |
| GGGTCGAA | -0.128 |
| AGATCTCC | 0.122 |
| AGGCCGGG | -0.108 |
| ATACCGGA | 0.326 |
| CGCAGAAG | 0.00083 |
| TAACGTTA | 0.166 |
| ATTGATCC | 0.0981 |
| AGAACTAG | -0.0366 |
| TCGCGCGA | -0.0129 |
| AGATCCAA | -0.0144 |
| CGAATACC | 0.0255 |
| ATCCTTTC | -0.00172 |
| ACTGTCGA | -0.101 |
| GACGTCGA | -0.188 |
| ACAGACAG | 0.0125 |
| ACCAGTGG | -0.105 |
| GGCCTAAA | -0.0532 |
| ACAGTGGT | -0.141 |

| Sequence | PBM E-score |
| --- | --- |
| CCGATCTA | 0.137 |
| GGCGGGGA | 0.0668 |
| CGAAACGC | -0.0285 |
| GAATGCCA | -0.0268 |
| AGTAGCGG | 0.0806 |
| ACACGCGT | 0.029 |
| GCGTCAAA | 0.0357 |
| CGGTTACC | -0.197 |
| AGTTGCTC | -0.0226 |
| ATATTAAG | 0.141 |
| GCAACGCC | -0.114 |
| AAATGACC | 0.104 |
| CACTGGTC | -0.214 |
| AACGGCCA | 0.161 |
| AAAACTTT | 0.0595 |
| CACAGCCA | -0.222 |
| AGCTGGGA | -0.262 |
| GAGTACCC | -0.196 |
| CGCCCAGC | -0.0173 |
| AGGCCGTC | -0.289 |
| AGCCATCC | -0.163 |
| CTGAACAC | -0.0309 |
| GCGTAGGA | -0.102 |
| AGGTATAG | -0.0949 |
| CTACCTGC | -0.0426 |

| Sequence | PBM E-score |
| --- | --- |
| CACGACCA | -0.0486 |
| ATCCGAGA | 0.198 |
| CGACACGC | -0.0851 |
| ATGATGGA | 0.0142 |
| ATCGATCG | -0.0937 |
| AATAGCTC | -0.207 |
| CTTATGGA | -0.169 |
| ATCAGCGA | 0.0529 |
| GCCCCTCA | -0.248 |
| GGTCATAC | -0.0756 |
| AACGTGAA | 0.0111 |
| CCAATAAC | 0.135 |
| CTTACTGC | -0.0137 |
| GTTATCAA | 0.109 |
| CATACCCC | 0.0362 |
| ACCGCGAA | 0.0419 |
| GCGACGTA | -0.143 |
| ACCGGCTG | -0.0111 |
| ACGGAACA | 0.229 |
| CAAGCTTC | 0.0847 |
| ATGGGCTC | -0.294 |
| ACTCCGAT | 0.491 |
| CGATCTAG | -0.0782 |
| AGACCTTG | -0.0468 |
| AGTTCTGC | -0.148 |

| Sequence | PBM E-score |
| --- | --- |
| AAACCTCC | -0.0204 |
| ACTAATAA | 0.223 |
| CGCGTACG | 0.0703 |
| AGACTTCG | -0.0617 |
| ACCCCCAA | -0.16 |
| ACGCCTAA | -0.0531 |
| CGTGAGTC | -0.248 |
| CGCCCATC | -0.158 |
| GCTACGGA | 0.151 |
| CAACACGC | -0.0885 |
| AACAAAGA | 0.129 |
| AAACAGCA | 0.0965 |
| CTGTGCGA | -0.187 |
| CTGGAGTA | 0.0562 |
| AAAGCGCG | -0.044 |
| AAGTCTGC | -0.193 |
| GCAATATA | 0.025 |
| ATTTCCGA | 0.231 |
| TGTTTCAA | 0.202 |
| CTAGACCC | -0.143 |
| AAGCACAC | -0.0807 |
| CTATCGGA | 0.337 |
| ATCCCGGC | -0.0494 |
| CAGGCTGG | -0.304 |
| CTAATCCC | -0.0144 |

| Sequence | PBM E-score |
| --- | --- |
| CGTGTAAG | 0.0869 |
| TATGACCA | -0.0156 |
| ATACTATC | 0.202 |
| GCGTGCCA | -0.115 |
| GATTCCAA | 0.0131 |
| CCCAGGAC | -0.228 |
| GAAGTGTA | -0.0846 |
| CCTCCGTC | -0.0539 |
| AATACTAC | 0.161 |
| ACGCTATC | -0.0585 |
| AGTAGACG | 0.0314 |
| AAGAGCTT | 0.0765 |
| GTAACGGA | 0.329 |
| GTAAGGAC | -0.256 |
| ACAGGACG | -0.00258 |
| GTTTAAAC | 0.31 |
| AACTGGAG | -0.112 |
| CCGGTACC | -0.0143 |
| AACGTATC | -0.0743 |
| ATAGAAAC | 0.195 |
| AGGTCTGC | -0.139 |
| CCAGCAGG | -0.299 |
| GTGCGGTA | -0.137 |
| AGTAGAGC | -0.177 |
| AGCTCAAT | 0.111 |

| Sequence | PBM E-score |
| --- | --- |
| CTTACTCA | -0.0535 |
| AACTTCGC | -0.047 |
| CTGCGCCA | -0.15 |
| ATAATGAC | -0.0339 |
| TGTCCGAA | 0.428 |
| AGGTTGAG | -0.157 |
| AACCTCTA | -0.0278 |
| CTGTTTTC | 0.101 |
| ACAGGAGC | -0.103 |
| AGTCTGTA | -0.146 |
| CAGTCGAC | -0.0872 |
| ATAGACCC | -0.0627 |
| GATGAAGA | 0.0267 |
| AGAGTGGC | -0.259 |
| GGCTCCAA | 0.00981 |
| ATCGCATC | -0.123 |
| GAGCCCGC | -0.146 |
| CCAAATCA | -0.0266 |
| CACGGAGC | 0.354 |
| GGGAACTA | -0.0295 |
| GGACGTAA | -0.136 |
| ACCCATGA | -0.124 |
| ACCCCCGA | -0.118 |
| GCATACCA | -0.197 |
| TGGATCAA | -0.0581 |

| Sequence | PBM E-score |
| --- | --- |
| ACGGATGC | 0.021 |
| CTTCTGTC | -0.0909 |
| CTCTGACC | -0.259 |
| CGCATTTC | 0.0887 |
| ACATGTAC | -0.109 |
| CGGGAAAG | 0.0751 |
| ACGGTCAT | 0.0457 |
| TAACCACA | 0.0707 |
| GTAGGTAA | 0.053 |
| ATAACGCA | 0.00177 |
| CCGGAAAG | 0.276 |
| TGTAAACA | 0.217 |
| CATCGCTA | -0.0159 |
| GCTCGTCA | -0.241 |
| GGCTAACC | -0.134 |
| GAAGAAAC | 0.177 |
| CTAATGTA | 0.118 |
| ACAGCTAC | -0.0838 |
| AAACTAAA | 0.222 |
| AAAGGAGA | -0.00755 |
| AAGGATAA | 0.0154 |
| GCTTGACC | -0.131 |
